# Experimental data: PubChem BioAssay AID1479 (National Center for Advancing Translational Sciences (NCATS), 2009)
# The whole screen tested about 280,000 compounds, of which about 820 (0.29%) were called active. The shares of active, inactive and inconclusive entries below differ from those in the screen. Calls come from the whole dose curve; as a rule, active = well fitted curve in either direction with a large enough effect; inconclusive = small, poorly fitted or top-dose-only effect; inactive = flat fitted curve, though single readings scatter. No potency is given beside an inconclusive call; the fits are too rough.
# Assay: Total Fluorescence Counterscreen for Inhibitors of the Interaction of Thyroid Hormone Receptor and Steroid Receptor Coregulator 2
# Settings: TRb/SRC2 Texas Red total fluorescence interference; series mostly up to 106 µM; fluorescence change, negative = quenching: at the top concentration
# In short: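 Human TRb ligand-binding domain at 0.6 uM with 20 nM Texas Red SRC2 peptide in Tris buffer containing 1 uM T3 and 5% DMSO, incubated with compound 5 h at ambient temperature. Total fluorescence (555/632 nm) calculated as parallel + 2 × perpendicular.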
# % is set by controls: 0 for no effect and ±100 for the full control effect; potency is the fitted concentration of half-maximal effect; tags give direction and shape of the fitted curve or compound fluorescence and quenching.
SMILES,Potency,"fluorescence change, negative = quenching"
COc1ccccc1NC(=O)CSc1nc2nccnc2c(=O)n1CCc1c[nH]c2ccccc12,"inconclusive [falling, full curve, poor fit]",
Cc1[nH]c2ccccc2c1C(c1ccccc1)c1ccc(Cl)s1 (stereo not drawn),,inactive: -1.75%
CCC(=O)N1CCc2cc(Br)cc(S(=O)(=O)N3CCCC(C(=O)Nc4cccc(C)c4C)C3)c21 (stereo not drawn),inconclusive,
COc1cc2c3cc1Oc1c(OC)c(OC)cc4c1[C@@H](Cc1ccc(OC(=O)c5ccc([N+](=O)[O-])cc5)c(c1)Oc1ccc(cc1)C[C@@H]3N(C)CC2)N(C)CC4,inactive,
CCOC(=O)C1=C(C)NC(=O)CC1c1cc2c(cc1[N+](=O)[O-])OCO2 (stereo not drawn),"inconclusive [quencher, partial curve]",
O=C(CSc1nc2nccnc2c(=O)n1CCc1c[nH]c2ccccc12)Nc1ccccc1,"inconclusive [falling, partial curve, poor fit]",
COc1cc(CNCc2ccncc2)cc(Br)c1OCc1ccccc1F,,inactive: -0.458%
CC(=O)N1CCc2c(sc3c2c(=O)n(Cc2ccccc2)c(=O)n3Cc2ccccc2F)C1,"inconclusive [quencher, full curve]",
COc1ccc(N2CCN(C(=O)C3CCCN(C(=O)c4cc5sccc5n4C)C3)CC2)cc1 (stereo not drawn),"inconclusive [falling, full curve, poor fit]",
COc1ccc(S(=O)(=O)NCCSc2nnnn2-c2ccccc2)cc1OC,active: 8.91 µM [quencher],
CC(C)CCNC(=O)c1ccc2c(c1)NC(=O)C(C(C)C)N2 (stereo not drawn),"inconclusive [quencher, full curve]",
Cc1ccc(N(Cc2cccs2)C(=O)C(C)Oc2ccc(Cl)c(C)c2)cc1 (stereo not drawn),"inconclusive [falling, full curve, poor fit]",
CCn1c(=O)n(-c2ccc3c(c2)OCO3)c2nc(-c3ccc(C(C)C)cc3)nc(C(N)=O)c21,"inconclusive [quencher, full curve]",
CC(C)(C)C1CCC(OC(=O)C[N+]2(C)CCCC2)CC1 (stereo not drawn),,inactive: 0.143%
CCCCc1cc(=O)oc2cc(C)c3c(C(C)(C)C)coc3c12,active: 100 µM [quencher],
c1coc(-c2nc(-c3ccco3)c(-c3ccco3)nc2-c2ccco2)c1,active: 12.6 µM [quencher],
COc1ccc2c(c1)Cc1sc(NC(=O)c3cccnc3)nc1-2,,inactive: -4.32%
COc1ccc(-c2cc(C(=O)Nc3sc4c(c3C(N)=O)CCCC4)no2)cc1,"inconclusive [falling, partial curve, poor fit]",
Cc1ccc(N2C(=O)CCSC23C(=O)N(Cc2ccccc2)c2ccccc23)cc1 (stereo not drawn),,inactive: -3.14%
CCC(=O)NCCc1nc2cc(NC(=O)c3cccc(Br)c3)ccc2n1C,"inconclusive [falling, partial curve, poor fit]",
COC(=O)c1ccc(C(=O)OC)c(NC(=O)CN(c2ccccc2)S(=O)(=O)N(C)C)c1,"inconclusive [quencher, partial curve]",

SMILES,Potency,"fluorescence change, negative = quenching"
COc1cccc(CNC(=O)CSC2=Nc3ccccc3N=C(c3ccc(F)cc3)C2)c1,"inconclusive [falling, full curve, poor fit]",
CSCC[C@H](NC(=O)[C@H](Cc1ccc(OS(=O)(=O)O)cc1)NC(=O)[C@@H](N)CC(=O)O)C(=O)NCC(=O)N[C@@H](Cc1c[nH]c2ccccc12)C(=O)N[C@@H](CCSC)C(=O)N[C@@H](CC(=O)O)C(=O)N[C@@H](Cc1ccccc1)C(N)=O,"inconclusive [falling, full curve, poor fit]",
CCN1CCC(N(Cc2ccc3c(c2)OCO3)C(=O)Nc2cc(F)ccc2F)CC1,"inconclusive [quencher, full curve]",
COc1cc(CC(=O)OCC(=O)Nc2cc([N+](=O)[O-])ccc2F)cc(OC)c1OC,active: 1000 µM [quencher],
Cc1ccc(C(=O)Oc2csc(=S)n2C(=O)c2ccc(C)cc2)cc1,,inactive: -11.6%
Cc1ccc(NC(=O)NC(=O)CSc2nnc(-c3ccc(Cl)cc3Cl)n2N)c(C)c1,"inconclusive [falling, full curve, poor fit]",
CCOc1cccc(CNCCNC(=O)c2nonc2N)c1,"inconclusive [falling, full curve, poor fit]",
COc1ccc(NC(=O)CCCn2c(=O)c3cccn3c3ccccc32)c(OC)c1,,inactive: -2.43%
COc1ccc(-c2[nH]ncc2CNC(C)c2cn(C)nc2C)c(F)c1 (stereo not drawn),"inconclusive [rising, single point]",
CC1CCc2noc(NC(=O)c3ccccc3[N+](=O)[O-])c2C1 (stereo not drawn),active: 22400 µM [quencher],
CCOc1ccccc1NC(=O)c1sc2nc(C)cc(C)c2c1N,,inactive: 1.65%
CCN(CC)c1ccc(/C=C2\CCC(/C=C(\C#N)C(=O)Nc3ccccc3F)=C2N2CCOCC2)cc1,"inconclusive [fluorescent, partial curve]",
Cc1nnc2c(N3CCN(c4ccccc4F)CC3)nc3ccccc3n12,inconclusive,
Cc1ccc(NC(=O)CSc2n[nH]c(C)c2[N+](=O)[O-])cc1C,"inconclusive [falling, full curve, poor fit]",
CC(C)c1c(O)ccc2c1CCC1[C@@](C)(CO)CCC[C@@]21C (stereo partly drawn),,inactive: -1.27%
CCOC(=O)c1ccccc1NC(=O)NC(C)c1c(-n2cccc2)sc(C)c1C (stereo not drawn),active: 22.4 µM [quencher],
Cc1cc(OCC(=O)Nc2ccc(-c3nc4cc(Cl)ccc4o3)cc2)cc(C)c1Cl,"inconclusive [falling, partial curve, poor fit]",
Cc1ccc(Cn2c(=O)c3cccnc3n(CC(=O)Nc3cccc(C(F)(F)F)c3)c2=O)cc1,"inconclusive [falling, full curve, poor fit]",
COc1ccc(NS(=O)(=O)c2cc3[nH]c(=O)c(=O)[nH]c3cc2C)cc1Cl,"inconclusive [quencher, full curve]",
Nc1ccn([C@@H]2O[C@H](CO)[C@@H](O)C2O)c(=O)n1 (stereo partly drawn),"inconclusive [quencher, partial curve]",
Cc1cc(C)c(NC(=S)NC(=O)c2c(Cl)c(C)nn2C)c([N+](=O)[O-])c1,,inactive: -1.02%

SMILES,Potency,"fluorescence change, negative = quenching"
COc1cc(OC)c2c(=O)c(-c3ccccc3)coc2c1,"inconclusive [falling, partial curve, poor fit]",
Cc1c2ccccc2nc2c(F)c(N(C)C)c(F)c(F)c12,"inconclusive [falling, partial curve, poor fit]",
COc1ccc(NC(=O)CN(Cc2ccccc2)S(=O)(=O)c2ccc(C)cc2)cc1Cl,active: 6.31 µM [quencher],
CO[C@H]1COC(=O)[C@H](C)NC(=O)[C@@H](C)COC(=O)[C@H]2CCCN2C(=O)C/C=C\[C@H]1C,,inactive: -1.05% [at 11.2 µM]
Cc1ccc(CN2CCN(/N=C\C(Br)=C\c3ccccc3)CC2)cc1,"inconclusive [falling, full curve, poor fit]",
CCOCCCNC(=O)NC(C)c1c(-n2cccc2)sc2c1CCN(CC)C2 (stereo not drawn),"inconclusive [falling, partial curve, poor fit]",
COc1cccc(NC(=O)CSC2=Nc3ccccc3C3=NC(CC(=O)NCCc4ccccc4)C(=O)N23)c1 (stereo not drawn),"inconclusive [falling, full curve, poor fit]",
O=[N+]([O-])c1cccc(NC(=S)NCCc2ccccc2)c1,active: 316 µM [quencher],
CCOC(=O)c1c(N)n(-c2cccc(OC)c2)c2nc3ccccc3nc12,inconclusive,
CCOc1cc(-c2ccc(OC(=O)c3ccccc3F)cc2)cc(=O)c2c(C)oc(C)c12,"inconclusive [falling, full curve, poor fit]",
O=C1c2ccccc2C(=O)C12OC2c1ccc(Cl)cc1Cl (stereo not drawn),"inconclusive [quencher, full curve]",
COc1cc2ccccc2cc1C(=O)Nc1ccc2oc(-c3ccc(F)cc3)nc2c1,"inconclusive [rising, single point]",
O=C(Nc1ccc(Br)c2cccnc12)c1cccc2ccccc12,,inactive: 0.363%
COC(=O)C1=CN(Cc2ccc(OC)cc2)C=C(C(=O)OC)C1c1cccs1,,inactive: -1.11%
COc1cc(-c2ccno2)ccc1S(=O)(=O)N1CCN(c2cc(C)ccc2C)CC1,,inactive: 2.04%
Cc1cc(C)cc(Oc2nc3c(C)cccn3c(=O)c2/C=C(\C#N)c2nc3ccccc3[nH]2)c1,"inconclusive [falling, full curve, poor fit]",
Cc1ccc(-c2cc(C(F)(F)F)n3nc(C(=O)Nc4ccc(Cl)cc4Cl)cc3n2)cc1,"inconclusive [quencher, full curve]",
COc1ccc(OC)c(/C=C/C(=O)OCC(=O)Nc2ccc3c(c2)OCCO3)c1,"inconclusive [falling, full curve, poor fit]",
CCOC(=O)c1c(C)c(-c2ccccc2)n(CC(=O)Nc2cc(OC)cc(OC)c2)c1C,"inconclusive [falling, full curve, poor fit]",
CN(C)c1ccc(/C=C/c2ccc3c4ccccc4ccc3[n+]2-c2ccccc2)cc1,active: 12.6 µM [fluorescent],
CCCOc1ccc(N2C(=O)CC(N(CCc3ccc(OC)c(OC)c3)C(=S)Nc3ccccc3)C2=O)cc1 (stereo not drawn),active: 0.501 µM [quencher],
